According to patent US20230406883A1, “COMPOUNDS AND THEIR USE IN TREATMENT OF TACHYKININ RECEPTOR MEDIATED DISORDERS” (Embark Biotech ApS, priority 2020, published 2023):
For some assays here: At least one compound was matched to its structure with a doubt left. Some results were stated once for a whole list of compounds, not compound by compound. Some compounds share one range, which may span the group rather than tell each member. Numbered stars: 1 amine (or outer) side, 2 acyl side, 3 side chain; on linkers, the order of the positions; unused ones are H or OH. Square brackets hold non-standard residues; d marks the D form. Side chains are listed from the residue outwards. Peptide text beside a SMILES is read from it. * marks the point of attachment. X1 = O=C(O)CCCCCCCCCCCCCCCCC(=O)N[C@@H](CCC(=O)NCCCNCCCCNCCCN*)C(=O)O; C18 diacid = O=C(O)CCCCCCCCCCCCCCCCC(=O)*; γGlu = O=C(O)[C@H](CCC(=O)[*:2])N[*:1]; εLys = N[C@@H](CCCCN[*:1])C(=O)[*:2]; aIle = CC[C@@H](C)[C@H](N)C(=O)O; NMeL = CN[C@@H](CC(C)C)C(=O)O; Suc = O=C(CCC(=O)[*:2])[*:1]; hSer = N[C@@H](CCO)C(=O)O; Nle = CCCC[C@H](N)C(=O)O; AEEA = NCCOCCOCC(=O)O

What was measured:
[1] = Energy expenditure and weight loss pharmacodynamics in DIO mice; format: in vivo; design: concentration or dose not given beside the values; conditions: daily s.c. injections for nine days
Protocol: Indirect calorimetry was used to evaluate the ability of individual peptide analogues to dose-dependently increase energy expenditure (EE) we used metabolic cages and indirect calorimetry measured by the Promethion system. To this end, oxygen consumption was used as a surrogate measure for EE. Substrate preference (fat or carbohydrate) was evaluated using the respiratory exchange ratio (RER). In parallel, behavioral information such as walking distance and water and food intake were recorded.
Prior to experimentation, DIO mice were transferred to habituation cages for at least 10 days (5 days outside and at least 5 days in the Sable Systems gas analyzer module) to acclimatize. For all in vivo compound tests for EE evaluation, mice received subcutaneous injections between 2 and 4 pm.
Energy expenditure and weight loss pharmacodynamics: To evaluate the ability of individual peptide analogues to dose-dependently increase EE by indirect calorimetry in DIO mice. Body weights were monitored from beginning of habituation until end of experiment. After habituation, mice were treated with daily injections of NKA(4-10) analogues at four different doses or vehicle by daily subcutaneous injections for nine days.
EE increase over vehicle was calculated as percent of mean oxygen consumption over a 30-hour period after injection. Prior to injection peptide analogues were dissolved and diluted in in vivo buffer. In order to take into account, the different half-lives for the compounds tested, the doses for each compound were calculated based on the given compound's individual pk-profiles.

hNK2R [2] = target: T1, hNK2R (Homo sapiens, UniProt P21452); experiment: IP3 assay (inositol trisphosphate, 3H-myoinositol) in transiently transfected COS-7 cells; format: cell-based; conditions: 0.2% ovalbumin buffer
T1 construct: host or cells: COS-7
T1 sequence (P21452 1-398): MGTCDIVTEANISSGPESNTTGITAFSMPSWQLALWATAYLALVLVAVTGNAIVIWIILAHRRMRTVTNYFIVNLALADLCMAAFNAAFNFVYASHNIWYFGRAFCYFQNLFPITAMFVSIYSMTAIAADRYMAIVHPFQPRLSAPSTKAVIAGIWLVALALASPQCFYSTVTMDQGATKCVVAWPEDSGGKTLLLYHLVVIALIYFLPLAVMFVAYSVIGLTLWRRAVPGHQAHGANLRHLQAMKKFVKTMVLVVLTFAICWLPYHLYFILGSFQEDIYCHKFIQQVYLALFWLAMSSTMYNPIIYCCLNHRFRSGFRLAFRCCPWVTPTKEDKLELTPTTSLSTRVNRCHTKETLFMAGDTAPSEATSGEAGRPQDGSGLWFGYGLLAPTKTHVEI
Protocol: (§1) Agonist-induced G-protein coupled receptor (GPCR) activation was measured by an Inositol-1,4,5-Trisphosphate [^3H] Radioreceptor Assay (IPs Assay). Assays were carried out using COS-7 cells transiently transfected by calcium phosphate transfection with a vector pcDNA3.1(+) encoding one of the indicated receptors (Genscript). Briefly, DNA mixed with CaCl2 (2 M) and TE-buffer (10 mM Tris-HCl, 1 mM EDTA, pH 7.5) was dropwise added to 2×HBS (50 mM HEPES, 280 mM NaCl, 1.5 mM NaH2PO4, pH 7.2) and incubated for 45 min at room temperature (22±2° C.). The mixture and a final concentration of 100 μM Chloroquine were added to the cells and left to incubate for 5 hours at 37° C. under standard cell culture conditions (10% CO2) before changing medium to fresh medium containing 5 μl/mL Myo-[2-^3H(N)]-inositol (labelling medium).
(§2) The IP3 assay takes advantage of the tachykinin receptors' ability to induce production of the inositol trisphosphate (IP3) second messenger upon agonist (ligand) binding on receptor expressing cells following an initial ^3H-inositol labelling period. In effect this means that production of the second messenger IP3 as a measure of receptor activity can be assessed by counting ^3H-activity.
(§3) Assay solutions used: Wash buffer (HBSS), Assay buffer (HBSS+10 mM LiCl and 0,2% w/v ovalbumin), Lysis buffer (10 mM formic acid), and SPA YSI beads (12.5 mg/ml in H2O). The assay was performed the day after transfection. Briefly, labelling medium was aspirated, and plates were washed ×1 in wash buffer before adding 100 μl assay buffer, pre-incubated for 30 min followed by 120 min incubation with agonist, both at 37° C. After incubation, plates were immediately placed on ice and the incubation medium was aspirated and 40 μl of 10 mM formic acid per well was added. Plates were incubated for at least 30 min on ice. 60 μl (1 mg/well) SPA YSI beads/well was pipetted into a solid white 96 wells plate and 35 μl of the lysis solution was transferred to the plate before covering plates with seal cover and shaking for 10 min. (max speed). Centrifuge plates and leave for 8 hours at room temperature before counting the plates in a MicroBeta plate counter (Perkin Elmer).

hNK1R = target: T2, hNK1R (Homo sapiens, UniProt P25103); experiment: as above; format: cell-based; conditions: 0.2% ovalbumin buffer
T2 construct: host or cells: COS-7
Protocol: as §1, §2, §3

hNK2R [3] = target: T1, hNK2R; experiment: Indirect human serum albumin binding by IP3 assay, 0.2% ovalbumin vs 1% HSA; format: cell-based
Protocol: as §1, with “(labeling” for “(labelling”
The indirect HSA binding IP3 assay takes advantage of the tachykinin receptors' ability to induce production of the inositol trisphosphate (IP3) second messenger upon agonist (ligand) binding on receptor expressing cells following an initial ^3H-inositol labeling period. The assay relies on the assumption that high peptide HSA binding will result in low receptor-mediated production of the second messenger IP3. Thus, the assay is an indirect assessment HSA binding.
Assay solutions used: Wash buffer (HBSS), Assay buffer 0.2% OvAlb (HBSS+10 mM LiCl and 0,2% w/v ovalbumin) or Assay buffer 1% HSA (HBSS+10 mM LiCl and 1% w/v HSA), Lysis buffer (10 mM formic acid), and SPA YSI beads (12.5 mg/ml in H2O). The assay was performed the day after transfection. Briefly, labelling medium was aspirated, and plates were washed ×1 in wash buffer before adding 100 μl assay buffer 0.2% OvAlb or assay buffer 1% HSA, pre-incubated for 30 min followed by 120 min incubation with agonist, both at 37° C. After incubation, plates were immediately placed on ice and the incubation medium was aspirated and 40 μl of 10 mM formic acid per well was added. Plates were incubated for at least 30 min on ice. […]

[4] = 0.2% ovalbumin, read-out: hNK2R, Albumin binding EC50 (nM)-ovalbumin

T2 sequence (P25103 whole entry): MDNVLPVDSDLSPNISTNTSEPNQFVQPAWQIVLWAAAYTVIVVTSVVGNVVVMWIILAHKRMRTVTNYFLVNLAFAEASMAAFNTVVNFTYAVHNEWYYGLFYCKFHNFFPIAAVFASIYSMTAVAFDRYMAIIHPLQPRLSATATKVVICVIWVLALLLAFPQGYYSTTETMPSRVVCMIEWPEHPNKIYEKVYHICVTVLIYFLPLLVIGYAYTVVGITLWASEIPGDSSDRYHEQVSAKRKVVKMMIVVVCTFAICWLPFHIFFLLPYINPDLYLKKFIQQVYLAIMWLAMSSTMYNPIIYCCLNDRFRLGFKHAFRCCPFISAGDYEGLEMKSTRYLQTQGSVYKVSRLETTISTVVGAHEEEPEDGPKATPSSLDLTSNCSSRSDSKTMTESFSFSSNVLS

Row | Compound | Energy expenditure efficacy (change relative to vehicle control) [1] | EC50 (hNK2R [2]) | EC50 (hNK1R) | EC50 (hNK2R [3]; [4]) | EC50 (hNK2R [3]; 1% HSA, read-out: hNK2R, Albumin binding EC50 (nM)-1% human serum albumin)
1 | CCCC[C@H](NC(=O)[C@H](CC(C)C)N(C)C(=O)CNC(=O)[C@@H](NC(=O)[C@H](Cc1ccc(O)cc1)NC(=O)[C@H](CCCCN)NC(=O)[C@H](CC(=O)O)NC(=O)COCCOCCNC(=O)COCCOCCNC(=O)CC[C@H](NC(=O)CCCCCCCCCCCCCCCCC(=O)O)C(=O)O)C(C)C)C(N)=O [compound 305, *Asp;Lys;Tyr;Val;Gly;NmLeu;Nle;NH2] ({C18 diacid-γGlu-AEEA-AEEA}-DKYVG[NMeL][Nle]-NH2) | 11-12% |  |  |  | 
2 | CCCC[C@H](NC(=O)[C@H](CC(C)C)N(C)C(=O)CNC(=O)[C@@H](NC(=O)[C@H](Cc1ccc(O)cc1)NC(=O)[C@H](CCCCN)NC(=O)[C@H](CC(=O)O)NC(=O)CCC(=O)NCCCNCCCCNCCCNC(=O)CC[C@H](NC(=O)CCCCCCCCCCCCCCCCC(=O)O)C(=O)O)C(C)C)C(N)=O [compound 318, *Asp;Lys;Tyr;Val;Gly;NmLeu;Nle;NH2] ({X1-Suc}-DKYVG[NMeL][Nle]-NH2) |  | 44 nM | ~780 nM | 6.7 nM | 1100 nM
3 | CCCC[C@H](NC(=O)[C@H](CC(C)C)N(C)C(=O)CNC(=O)[C@@H](NC(=O)[C@H](Cc1ccc(O)cc1)NC(=O)[C@H](CCCCN)NC(=O)[C@H](CC(=O)O)NC(=O)COCCOCCNC(=O)COCCOCCNC(=O)CC[C@H](NC(=O)CCCCCCCCCCCCCCCCC(=O)O)C(=O)O)[C@H](C)CC)C(N)=O [compound 351, *Asp;Lys;Tyr;Ile(R);Gly;NmLeu;Nle;NH2] ({C18 diacid-γGlu-AEEA-AEEA}-DKY[aIle]G[NMeL][Nle]-NH2) |  | 14 nM | 950 nM |  | 
4 | CCCC[C@H](NC(=O)[C@H](CC(C)C)N(C)C(=O)CNC(=O)[C@@H](NC(=O)[C@H](Cc1ccc(O)cc1)NC(=O)[C@H](CCCCN)NC(=O)[C@H](CC(=O)O)NC(=O)[C@@H](N)CCCCNC(=O)[C@@H](N)CCCCNC(=O)CC[C@H](NC(=O)CCCCCCCCCCCCCCCCC(=O)O)C(=O)O)C(C)C)C(N)=O [compound 321, *Asp;Lys;Tyr;Val;Gly;NmLeu;Nle;NH2] (H-K([εLys-γGlu-C18 diacid])DKYVG[NMeL][Nle]-NH2) |  | 90 nM | ~170 nM | 11 nM | 
5 | CCCC[C@H](NC(=O)[C@H](CC(C)C)N(C)C(=O)CNC(=O)[C@@H](NC(=O)[C@H](Cc1ccccc1)NC(=O)[C@H](CCCCN)NC(=O)[C@H](CC(=O)O)NC(=O)COCCOCCNC(=O)COCCOCCNC(=O)CC[C@H](NC(=O)CCCCCCCCCCCCCCCCC(=O)O)C(=O)O)C(C)C)C(N)=O [compound 304, *Asp;Lys;Phe;Val;Gly;NmLeu;Nle;NH2] | 11-12% |  |  |  | 
6 | CCCC[C@H](NC(=O)[C@H](CC(C)C)N(C)C(=O)CNC(=O)[C@@H](NC(=O)[C@H](Cc1ccc(O)cc1)NC(=O)[C@H](CCCCN)NC(=O)[C@H](CC(=O)O)NC(=O)CC[C@H](NC(=O)CC[C@H](NC(=O)CC[C@H](NC(=O)CCCCCCCCCCCCCCCCC(=O)O)C(=O)O)C(=O)O)C(=O)O)C(C)C)C(N)=O [compound 319, *Asp;Lys;Tyr;Val;Gly;NmLeu;Nle;NH2] ({C18 diacid-γGlu-γGlu-γGlu}-DKYVG[NMeL][Nle]-NH2) |  | ~220 nM |  |  | 
7 | COCC[C@H](NC(=O)[C@H](CC(C)C)N(C)C(=O)CNC(=O)[C@@H](NC(=O)[C@H](Cc1ccc(O)cc1)NC(=O)[C@H](CCCCN)NC(=O)[C@H](CC(=O)O)NC(=O)COCCOCCNC(=O)COCCOCCNC(=O)CC[C@H](NC(=O)CCCCCCCCCCCCCCCCC(=O)O)C(=O)O)C(C)C)C(N)=O [compound 344, *Asp;Lys;Tyr;Val;Gly;NmLeu;Metox;NH2] ({C18 diacid-γGlu-AEEA-AEEA}-DKYVG[NMeL][hSer](Me)-NH2) | 11-12% |  |  |  | 
8 | COCC[C@H](NC(=O)[C@H](CC(C)C)N(C)C(=O)CNC(=O)[C@@H](NC(=O)[C@H](Cc1ccccc1)NC(=O)[C@H](CCCCN)NC(=O)[C@H](CC(=O)O)NC(=O)COCCOCCNC(=O)COCCOCCNC(=O)CC[C@H](NC(=O)CCCCCCCCCCCCCCCCC(=O)O)C(=O)O)[C@@H](C)O)C(N)=O [compound 383, *Asp;Lys;Phe;Thr;Gly;NmLeu;Metox;NH2] ({C18 diacid-γGlu-AEEA-AEEA}-DKFTG[NMeL][hSer](Me)-NH2) | 11-12% |  |  |  | 
